Each structure is given as a SMILES string. In all, about 150,000 compounds went through this assay and about 540 (0.36%) showed an effect of 50% or more. The list shows a part of the results.

The subject of this assay is Plasmodium falciparum. In words: Primary screen in NF54 nanoGlo assay, in single point, at 2uM, 72h; a lower Z score goes with more inhibition. In kind it is functional, Erythrocyte. The conditions noted are these: timepoint 72 hour.
For the compound `Nc1nc(C2CCCC2)ncc1C(=O)N1CCC[C@H](CN2CCCCCC2)C1`, the “% Inhibition” value is -6% and the Z score was found to be 0.92.
Consider `Cn1nccc1C1(O)CCN(c2ccc3nccnc3n2)CC1`, for which the “% Inhibition” value is reported as 1% and the Z score is recorded as -0.18.
As for `CN(CCc1nccs1)c1nnc(C2CC2)o1`, the “% Inhibition” value was -8% and the Z score turned out to be 1.35.
`O=C(N[C@H]1CCN(Cc2ccccn2)C[C@@H]1O)c1ccon1`: the “% Inhibition” value is -12% and the Z score is reported as 1.7.
For `CS(=O)(=O)N1CCN(C(=O)COc2ccc(Cl)cc2C2CCCCC2)CC1`, in that order: 1% and -0.19.
For the compound `Cc1cc(O)ccc1NC(=O)Nc1c(C)ccn(C)c1=O`, the “% Inhibition” value is reported as 1% and the Z score is reported as -0.07.
For `Cn1cnc2cc(CN3CCNC(=O)C3(C)C)ccc21`, in that order: -4% and 0.66.
The corresponding values for `CC1C(C(F)(F)F)OCCN1C(=O)NC1CCCC1Cc1ccccn1` (configuration not stated) are -4% and 0.71.
For the compound `Cc1nn(C)c(C)c1C(=O)N1CC(CF)C1`, the “% Inhibition” value is reported as 1% and the Z score is -0.17.
For the compound `COC1(C)CC(N(C)C(=O)c2cc3ccccc3o2)C1(C)C` (configuration not stated), the “% Inhibition” value is listed as -8% and the Z score is listed as 0.98.
For the compound `C[C@]1(F)CNCCN(C(=O)CCc2ccncn2)C1`, the “% Inhibition” value is given as -4% and the Z score is recorded as 0.69.
Take `CC1CCN(c2nccnc2Oc2ccc(C(=O)N3CCN(c4ccccc4Cl)CC3)cc2)CC1`: the “% Inhibition” value was determined as 11% and the Z score is -1.7.
With `c1cnc(Cc2noc([C@H]3CCCc4[nH]nnc43)n2)cn1`, the “% Inhibition” value is reported as 21% and the Z score is -2.62.
On to `O=C(NC(c1ccccc1)c1ccccc1)c1ccc(OCC2CCOCC2)nc1`, for which the “% Inhibition” value was -16% and the Z score is given as 3.06.
The corresponding values for `O=C1N(Cc2ccc(F)cc2)CCC[C@@]1(O)CNC1CC1` are -20% and 1.79.
Turning to `N#Cc1ccccc1OCc1ccc(S(=O)(=O)N2CCCC2)o1`, the “% Inhibition” value worked out at 7% and the Z score was -0.96.
Turning to `Cc1nn(C)c2nc(N[C@@H]3C[C@@H](CO)N(C)C3)sc12`, the “% Inhibition” value turned out to be 3% and the Z score is listed as -0.48.
For `Cc1ccc(-n2cc(-c3ccccc3)nc2NC(=O)CN(Cc2ccccc2)C(=O)NC(C)C)cc1F`, in that order: 3% and -0.24.
Turning to `Cc1c(C(=O)Nc2cnns2)oc2ccccc12`, the “% Inhibition” value is -19% and the Z score is 1.91.
For `O=C1Nc2c(-c3ccc(Cl)cc3)cnn2C[C@@H]1CC(=O)N1CCCC1`, the “% Inhibition” value is -10% and the Z score is listed as 1.15.
For `CC[C@@](C)(C#CCN1CCC(Cc2ccccc2)CC1)OCCOCc1ccccc1`, the “% Inhibition” value is given as -12% and the Z score worked out at 1.62.
Regarding `CCn1nc(CC(N)=O)nc1CCn1cnc2ccccc2c1=O`, the “% Inhibition” value is listed as -14% and the Z score was 1.68.
Take `N=C(N)c1ccc(-n2cc(-c3ccncc3)cn2)cc1C(F)(F)F`: the “% Inhibition” value amounted to 17% and the Z score is recorded as -3.04.
In the case of `CCC(C(=O)Nc1cc(C)on1)N1CCOC(Cn2cc(C)cn2)C1` (configuration not stated), the “% Inhibition” value is on record as -13% and the Z score was 1.37.
Consider `Cc1cccc(C)c1NC(=O)Cn1c(=O)n(CC(C)C)c(=O)c2nscc21`, for which the “% Inhibition” value was -2% and the Z score came to 0.26.
Turning to `Cc1cccc(C(=O)N[C@H]2COc3ccc(F)cc32)c1O`, the “% Inhibition” value is reported as -13% and the Z score was found to be 1.64.
In the case of `COc1cc(NC(=O)CCc2nnc3ccc(N4CCN(C)CC4)nn23)cc(OC)c1`, the “% Inhibition” value was -27% and the Z score is given as 2.63.
Regarding `COc1ccc([C@H]2NC(=O)N(c3cccc(C(F)(F)F)c3C)C2=O)c(OC)c1`, the “% Inhibition” value was -1% and the Z score is on record as 0.08.
As to `O=C(Nc1ccc(Br)cc1)c1ccc2c(c1)nnn2Cc1ccccc1`, the “% Inhibition” value is reported as -10% and the Z score worked out at 1.34.
`NC(=O)c1ccc(C(=O)N2CC(c3ccccc3F)C2)o1`: the “% Inhibition” value is -12% and the Z score worked out at 1.47.
Consider `Cc1c(N2C(=O)[C@H](C)N(C3CCC3)C2=O)c(=O)n(-c2ccccc2)n1C`, for which the “% Inhibition” value is reported as 23% and the Z score is given as -2.64.
For the compound `COCCN1CC2CN(C(=O)c3ccco3)CC(C1)O2`, the “% Inhibition” value is listed as 4% and the Z score is on record as -0.51.
As for `Cc1noc(C)c1CC(=O)Nc1ccc(OC(C)C)nn1`, the “% Inhibition” value was 2% and the Z score is -0.24.
As for `C[C@H](NC(=O)Nc1cccc2c1CCC2)c1nnc(N)s1`, the “% Inhibition” value is -5% and the Z score turned out to be 0.46.
Turning to `O=C([C@H]1CCS(=O)(=O)C1)N(CCc1ccccc1)c1ccccc1`, the “% Inhibition” value is recorded as -12% and the Z score is on record as 1.38.
As to `O=C(c1csc2cncn12)N1CCC(CCCO)CC1`, the “% Inhibition” value is reported as -7% and the Z score was 1.17.
The corresponding values for `CCn1cnc(CN[C@@H](C)C(C)OC)c1` (some centres not stated) are -7% and 1.05.
For the compound `Cn1ncc(C2CCC2)c1CNC(=O)CCc1ccncc1`, the “% Inhibition” value is on record as -3% and the Z score was 0.52.
For `CC(=O)N1CCCc2cc(NCc3nc(C)cs3)ccc21`, the “% Inhibition” value is listed as -3% and the Z score came to 0.3.
Take `COC(=O)N[C@@H](C)C(=O)N1CCC2(CCC(=O)N(Cc3ccncc3)C2)CC1`: the “% Inhibition” value is -14% and the Z score is reported as 1.44.
For `Cc1cc(N2C3CCC2CC(O)C3)c(C#N)c(C)n1` (configuration not stated), in that order: -7% and 1.06.
For `O=C(O)c1cc2ncc(-c3cc(NCc4cccnc4)nc4[nH]ccc34)cn2n1`, in that order: -3% and 0.53.
On to `O=S(=O)(NC(C1CC1)C1CC1)c1ccc(Cl)cc1`, for which the “% Inhibition” value was 3% and the Z score was -0.62.
Consider `CC(C)CN(CC(F)(F)F)C(=O)COc1ccc(CC#N)cc1`, for which the “% Inhibition” value is on record as -18% and the Z score stood at 3.31.
For `CCc1ccc(S(=O)(=O)Nc2ncn(Cc3ccccc3Cl)n2)cc1`, in that order: -12% and 1.61.
For `COCc1nc(CNC(=O)c2ncccc2O)no1`, the “% Inhibition” value is -8% and the Z score worked out at 1.34.
On to `O=C1NC(=O)[C@@]2(CCCN(C(=O)c3ccsc3)C2)N1`, for which the “% Inhibition” value is given as -13% and the Z score came out at 1.51.
Turning to `CN1CCC(CN(C)C(=O)N[C@H]2CCCN(c3ccccc3Cl)C2)CC1`, the “% Inhibition” value is -3% and the Z score was 0.36.
On to `O=C(NCc1ccccc1Cl)c1ncn(C[C@H](O)c2ccccc2)n1`, for which the “% Inhibition” value was -18% and the Z score stood at 2.06.
The corresponding values for `CC(C)c1noc([C@H](C)n2ccnc2C(C)(C)C)n1` are 4% and -0.38.
In the case of `C[C@@H](C(=O)Nc1cccc(S(=O)(=O)N2CCOCC2)c1)N1CCN(CC=Cc2ccccc2)CC1`, the “% Inhibition” value is recorded as -6% and the Z score worked out at 0.95.
In the case of `CC(=O)NC1CCC(N[C@@H](C)COc2ccc(F)cc2)CC1` (some centres not stated), the “% Inhibition” value is -2% and the Z score is listed as 0.25.
Regarding `CCC(F)(F)C(C)(C)CNc1ccc(Cl)c(NC(C)=O)c1`, the “% Inhibition” value stood at 3% and the Z score is -0.39.
As for `CN1CCC(NC(=O)c2cccc3ccccc23)CC1`, the “% Inhibition” value is listed as -16% and the Z score was 1.51.
On to `CNC(=O)c1cc(S(=O)(=O)N(C)Cc2nc3ccc(F)cc3[nH]2)cs1`, for which the “% Inhibition” value is given as -7% and the Z score came to 1.16.
For the compound `CCC(=O)N1CCc2cc(CNS(=O)(=O)N(C)C)ccc21`, the “% Inhibition” value was -4% and the Z score worked out at 0.48.
`Cc1nnsc1C(C)N1CCN(C(C)c2snnc2C)CC1` (configuration not stated): the “% Inhibition” value is 2% and the Z score is -0.33.
In the case of `Cc1cc(C)c(S(=O)(=O)NC[C@@H](c2ccco2)N2CCc3ccccc3C2)c(C)c1`, the “% Inhibition” value is on record as -17% and the Z score is reported as 2.21.
Consider `COCCOCCc1nc(C(=O)Nc2cc(C)ccc2F)c[nH]1`, for which the “% Inhibition” value is on record as -4% and the Z score amounted to 0.71.
For `CN(C)c1cc(NC(=O)C[C@@H]2C=CCCC2)ncn1`, in that order: 5% and -0.94.
As to `Cc1ccsc1CNc1cnc2c(c1)COCC2`, the “% Inhibition” value was determined as 3% and the Z score is -0.42.
For `CCC[C@@](C)(CCCNC(=O)C(C)(C)C#N)C1OCCO1`, the “% Inhibition” value is recorded as -3% and the Z score was 0.32.
For `Cc1nc(CN2[C@H]3C[C@H]4CCC3(CS2(=O)=O)C4(C)C)oc1C`, the “% Inhibition” value was -2% and the Z score is 0.25.
For `COCCc1noc([C@@H]2CCCN2CCn2cncn2)n1`, in that order: -5% and 1.01.
For `CC(C)c1ncc(C(=O)NCCCn2ccnc2)cn1`, in that order: -3% and 0.5.
The corresponding values for `CNC1CCN(C(=O)c2ccc3c(c2)n(CC2CC2)c(=O)n3C2CCCCC2)CC1` are -4% and 0.64.
For `Cn1nccc1CN1C[C@H]2C[C@H](c3ccccc3)CC[C@@]2(C(=O)O)C1`, the “% Inhibition” value is given as 3% and the Z score was -0.61.
The corresponding values for `COc1ccc(CNC(=O)CNC(C)C2CC3CCC2C3)cc1OC` (configuration not stated) are 13% and -2.09.
In the case of `O=C1O[C@]2(CCCN(C(=O)c3ccc(F)cc3Cl)C2)c2ccccc21`, the “% Inhibition” value is recorded as -11% and the Z score amounted to 1.45.
On to `CCOC(=O)N1CCN(C(=O)c2cccc(-c3nc(C)cnc3C)c2)CC1`, for which the “% Inhibition” value is listed as -22% and the Z score worked out at 2.23.
With `CCCCCS(=O)(=O)N1CCCCC1`, the “% Inhibition” value was -4% and the Z score is reported as 0.72.
In the case of `CC(C)(C)CN(CCCO)S(=O)(=O)c1ccc(C#N)cc1F`, the “% Inhibition” value was -1% and the Z score stood at 0.14.
Take `CNC(=O)c1cccnc1N1C[C@H](NC(=O)C2CCCC2)[C@@H](C(C)C)C1`: the “% Inhibition” value came out at 11% and the Z score is listed as -1.39.
For `Cc1ccccc1CNC(=O)Cc1nnc2c(-c3nc(C(C)(C)C)no3)cccn12`, the “% Inhibition” value is given as -5% and the Z score worked out at 0.82.
As for `CC(=O)Nc1ccc(CCc2nc3cc(C(=O)N4CCN(c5cccc(C)c5)[C@@H](C)C4)ccc3[nH]2)cc1`, the “% Inhibition” value stood at 7% and the Z score is given as -0.86.
For `O=C(CC1=CCCCC1)NC[C@H](O)c1ccccc1F`, the “% Inhibition” value is -1% and the Z score stood at 0.1.
The corresponding values for `O=C(CNc1ncc(C(F)(F)F)s1)NCC1CC1` are -1% and 0.16.
Regarding `c1ccc2c(c1)CCC[C@@H]2Nc1ncnc2nc[nH]c12`, the “% Inhibition” value is recorded as -8% and the Z score was 1.11.
Take `O=C(c1c[nH]c(=O)c(Cl)c1)N1CCC2(CC1)c1ccccc1C[C@@H]2O`: the “% Inhibition” value was found to be 0% and the Z score is given as 0.01.
`COc1cccc(CNC(=O)CN2CCC[C@H](c3nnc4ccccn34)C2)c1`: the “% Inhibition” value is -4% and the Z score turned out to be 0.46.
For the compound `CN(C)c1noc(CN2CCc3ccc(F)cc3C2)n1`, the “% Inhibition” value came out at 51% and the Z score is given as -2.97.
For `CCC1(C)CC(=O)N(CC(=O)Nc2ccc(F)cc2)C(=O)C1`, in that order: 1% and -0.12.
With `Cc1nnsc1C(=O)Nc1ccccc1Cc1ccccc1`, the “% Inhibition” value was -7% and the Z score is listed as 0.86.
Take `COC[C@@]1(CO)CCN(C(=O)OC(C)(C)C)C1`: the “% Inhibition” value was -7% and the Z score is listed as 0.93.
The corresponding values for `Cc1cc(C)nc(CN[C@@H](C)CN2CCCCCC2)n1` are -14% and 2.33.
`O=C(NCc1cocn1)c1c[nH]c(C(F)(F)F)c1`: the “% Inhibition” value is given as -12% and the Z score worked out at 2.13.

The term % Inhibition denotes the relative decrease from the control value, in per cent.

The record behind these values is ChEMBL document CHEMBL4888484, “Replenishing the malaria drug discovery pipeline: Screening and hit evaluation of the MMV Hit Generation Library 1 (HGL1) against asexual blood stage Plasmodium falciparum ,using a nano luciferase reporter read-out” (2022).
